Laboratory results: patent US20200060273A1, “FUNGICIDAL COMPOSITIONS” (Novus International, Inc., priority 2018, published 2020)

System: Podosphaera xanthii
Assay: greenhouse powdery mildew on cucurbit (summer squash) assay
Description: Gentry variety summer squash plants in 1 gallon pots were placed 12 inches apart and inoculated with powdery mildew of cucurbits (Podosphaera xanthii).
The plants were sprayed to run-off with the solution of the appropriate concentration. The fungicide concentration of the mix was the same as a field rate in which 15,000 plants per acre were grown. One-hundred gallons per acre of treatment applications were sprayed using a Flo-Master compressed CO2 sprayer with boom incorporating a single nozzle. Treatments included azoxystrobin at 0.18 lb ai/a (0.021% v/v) with and without HMTBA (three rates: 0.107, 0.536 and 1.073% v/v). An untreated check was included for reference. Each treatment arm received five applications (A, B, C, D, E), with approximately one week between each application.
Powdery mildew severity was rated on 5 plants per plot on a 0-10 scale (0 is no pest damage and 10 is a severe infestation) for the whole plant for each assessments. Pest incidence (percent of plants with signs of disease), the area under the disease progress curve (AUDPC) and percent disease control (Abbott's formula) calculations were performed in ARM9 software (Gylling Data Management). Bartlett's test for homogeneity of variances was used to determine the need for data transformations. Letters in tables represent means separation significant and 0.05.
AUDPC calculates the average disease intensity between each pair of adjacent time points. It is calculated by determining the average distance in rise of disease intensity for each evaluation date and adding them together by treatment. The equation for calculation is as follows:
where y=severity, t=time, N=average disease intensity between two adjacent time points. Percent disease control expresses the severity of fungal disease infection in treated plots, compared to plants in the untreated check. It was calculated using the Abbott formula. The equation for calculation is as follows: […]
Powdery mildew severity was rated on five plants/plot on 3 days after Application A (3DA-A), 1 day after Application B (1 DA-B), 6 days after Application B (6 DA-B), 5 days after Application C (5 DA-C), and 1 day after Application E (1 DA-E).

[1] = Azoxystrobin 0.18 lb ai/a (0.021% v/v), 1 DA-B
[2] = Azoxystrobin 0.18 lb ai/a (0.021% v/v), 1 DA-E
[3] = Azoxystrobin 0.18 lb ai/a (0.021% v/v), 3 DA-A
[4] = Azoxystrobin 0.18 lb ai/a (0.021% v/v), 5 DA-C
[5] = Azoxystrobin 0.18 lb ai/a (0.021% v/v), 6 DA-B

Row | Structure (SMILES) | Average Pest Severity Score (0-10) [1] [b] | Disease Incidence (%) [1] [% b] | Average Pest Severity Score (0-10) [2] [b] | Disease Incidence (%) [2] [% b] | Average Pest Severity Score (0-10) [3] [ab] | Disease Incidence (%) [3] [% ab] | Average Pest Severity Score (0-10) [4] [bc] | Disease Incidence (%) [4] [% c] | Average Pest Severity Score (0-10) [5] [b] | Disease Incidence (%) [5] [% bc] | PM AUDPC % Control (Azoxystrobin 0.18 lb ai/a (0.021% v/v), Abbott's formula vs untreated check) [% b] | Powdery Mildew Area Under the Disease Progress Curve (AUDPC) (Azoxystrobin 0.18 lb ai/a (0.021% v/v), five assessments) [b] | pest severity ratings compared with other treatments (HMTBA at 0.536% v/v (with azoxystrobin 0.021% v/v), all assessments)
1 | CO/C=C(/C(=O)OC)c1ccccc1Oc1cc(Oc2ccccc2C#N)ncn1 [Azoxystrobin, azoxystrobin] | 1.10 | 45.0 | 2.20 | 70.0 | 0.70 | 30.0 | 1.80 | 50.0 | 1.30 | 50.0 | 43.20 | 36.00 | 
2 | CSCCC(O)C(=O)O (stereo not shown) [HMTBA, 2-hydroxy-4(methylthio)butanoic acid] |  |  |  |  |  |  |  |  |  |  |  |  | statistically lower pest severity ratings for all assessments compared to treated and untreated plants
